Reference: PubChem BioAssay AID504333 (National Center for Advancing Translational Sciences (NCATS), 2011)
Out of some 360,000 compounds screened, about 16,000 (4.4%) were called active. This list was built around the results that the source calls inconclusive (neither active nor inactive); the mix of calls is not that of the screen. Calls come from the whole dose curve; as a rule, active = well fitted inhibition curve with a large enough effect; inconclusive = small, poorly fitted or top-dose-only effect; inactive = no such curve, though single readings can be large or run the other way. A potency beside an inconclusive call is a rough fit, not a confirmed value.

The molecules below were run against Bromodomain adjacent to zinc finger domain protein 2B (Homo sapiens) (UniProt Q9UIF8) (assay: qHTS Assay for Inhibitors of BAZ2B). Settings: AlphaScreen BAZ2B-H3K14Ac peptide displacement; series mostly up to 114 µM.
Chain of UniProt Q9UIF8 (Q9UIF8 whole entry, looked up, the tested form may be a part): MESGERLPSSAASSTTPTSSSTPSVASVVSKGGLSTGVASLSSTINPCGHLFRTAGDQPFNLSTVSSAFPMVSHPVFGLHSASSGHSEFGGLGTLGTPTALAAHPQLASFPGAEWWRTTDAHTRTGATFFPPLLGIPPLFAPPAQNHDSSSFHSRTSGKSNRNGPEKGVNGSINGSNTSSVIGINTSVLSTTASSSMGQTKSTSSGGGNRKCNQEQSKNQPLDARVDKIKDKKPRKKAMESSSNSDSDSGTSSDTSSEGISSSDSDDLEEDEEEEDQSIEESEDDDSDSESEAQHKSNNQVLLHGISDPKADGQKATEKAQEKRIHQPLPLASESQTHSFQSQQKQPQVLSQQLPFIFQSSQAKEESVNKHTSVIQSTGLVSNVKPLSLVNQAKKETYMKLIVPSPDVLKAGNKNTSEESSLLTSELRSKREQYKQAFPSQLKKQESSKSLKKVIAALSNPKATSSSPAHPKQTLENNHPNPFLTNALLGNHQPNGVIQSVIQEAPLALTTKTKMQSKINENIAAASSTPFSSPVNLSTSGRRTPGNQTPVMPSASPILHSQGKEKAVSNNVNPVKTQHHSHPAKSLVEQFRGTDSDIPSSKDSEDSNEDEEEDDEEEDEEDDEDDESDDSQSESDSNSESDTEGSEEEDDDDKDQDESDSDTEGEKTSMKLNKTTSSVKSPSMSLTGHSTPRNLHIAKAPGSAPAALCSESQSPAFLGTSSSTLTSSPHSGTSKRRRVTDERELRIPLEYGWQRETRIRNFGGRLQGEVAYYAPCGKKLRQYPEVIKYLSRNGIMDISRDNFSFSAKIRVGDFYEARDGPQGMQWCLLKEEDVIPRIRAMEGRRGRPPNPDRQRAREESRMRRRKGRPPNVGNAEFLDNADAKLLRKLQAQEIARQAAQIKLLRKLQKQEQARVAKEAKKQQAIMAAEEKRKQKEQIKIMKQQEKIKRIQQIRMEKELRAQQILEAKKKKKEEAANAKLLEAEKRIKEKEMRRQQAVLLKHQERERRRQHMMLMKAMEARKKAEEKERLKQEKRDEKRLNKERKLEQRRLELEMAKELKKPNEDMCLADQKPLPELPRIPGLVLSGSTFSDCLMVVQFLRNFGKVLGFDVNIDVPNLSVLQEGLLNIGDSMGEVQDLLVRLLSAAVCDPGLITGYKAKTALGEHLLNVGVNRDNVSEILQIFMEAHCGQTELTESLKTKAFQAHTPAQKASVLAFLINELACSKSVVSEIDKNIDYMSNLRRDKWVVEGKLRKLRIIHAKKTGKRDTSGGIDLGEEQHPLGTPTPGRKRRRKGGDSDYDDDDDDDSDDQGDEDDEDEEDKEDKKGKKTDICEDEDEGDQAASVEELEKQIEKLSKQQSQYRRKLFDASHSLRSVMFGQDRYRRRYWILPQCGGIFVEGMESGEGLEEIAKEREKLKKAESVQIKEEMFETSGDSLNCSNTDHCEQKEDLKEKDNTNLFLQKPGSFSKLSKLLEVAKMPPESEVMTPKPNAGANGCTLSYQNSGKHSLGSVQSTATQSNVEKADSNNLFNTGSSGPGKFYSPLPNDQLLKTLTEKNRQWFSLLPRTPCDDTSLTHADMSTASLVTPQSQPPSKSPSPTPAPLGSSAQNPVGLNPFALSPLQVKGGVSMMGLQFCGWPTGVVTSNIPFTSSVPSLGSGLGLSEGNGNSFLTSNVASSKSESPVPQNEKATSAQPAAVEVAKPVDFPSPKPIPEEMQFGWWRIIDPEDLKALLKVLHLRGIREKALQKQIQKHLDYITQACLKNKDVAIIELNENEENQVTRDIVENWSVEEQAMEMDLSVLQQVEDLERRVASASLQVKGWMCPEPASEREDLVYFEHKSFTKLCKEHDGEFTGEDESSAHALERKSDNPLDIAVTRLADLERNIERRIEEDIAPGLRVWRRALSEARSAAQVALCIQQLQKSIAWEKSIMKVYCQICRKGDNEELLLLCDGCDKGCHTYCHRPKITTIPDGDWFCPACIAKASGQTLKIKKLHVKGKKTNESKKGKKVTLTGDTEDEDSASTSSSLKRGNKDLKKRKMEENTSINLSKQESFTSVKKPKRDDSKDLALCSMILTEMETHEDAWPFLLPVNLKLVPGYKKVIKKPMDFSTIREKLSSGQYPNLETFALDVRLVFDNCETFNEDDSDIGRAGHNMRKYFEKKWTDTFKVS
Outline: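 In this displacement format the biotinylated H3(5-23) peptide acetylated at Lys14 serves as ligand at 50 nM, with BAZ2B at 50 nM in PBS pH 7.4 containing 0.01% Tween-20. Donor and acceptor beads are 10 ug/mL final.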
Note: nearly all actives have a fitted effect of over 60% in size.
Potency is the fitted concentration of half-maximal effect; tags give direction and shape of the fitted curve.

Row | Structure (SMILES) | Potency
1 | Cc1oc(-c2ccc(Cl)cc2)cc1-c1nn2c(-c3ccco3)nnc2s1 | active: 35.5 µM
2 | CCn1c(-c2cc(-c3cccc(OC)c3)nc3ccccc23)n[nH]c1=S | inconclusive: 89.1 µM [inhibitor, single point]
3 | O=C1NCCCC1C(=O)N/N=C/c1ccccc1[N+](=O)[O-] (centres undefined) | inactive
4 | CSc1ccccc1C(=O)Nc1ccccc1C | inactive
5 | CCn1ccnc1CN(C)Cc1cn(C)nc1-c1ccccc1F | inconclusive: 89.1 µM [inhibitor, single point]
6 | COc1cc(C(=O)O)nc2ccc([N+](=O)[O-])cc12 | active: 50.1 µM
7 | CCCn1cnc2cc(NCc3ccccc3OCC)ccc21 | active: 39.8 µM
8 | Cc1ccc(C)c(S(=O)(=O)N2CCN(C(=O)CCc3c[nH]c4ccccc34)CC2)c1 | inconclusive: 89.1 µM [inhibitor, single point]
9 | COc1cc(/C=N/Nc2nn3cnnc3c3ccccc23)ccc1O | inconclusive: 89.1 µM [inhibitor, single point]
10 | NC(=O)C1CCN(c2oc(-c3ccccc3)nc2S(=O)(=O)c2ccc(Br)cc2)CC1 | inconclusive: 35.5 µM [inhibitor, partial curve]
11 | Cc1c(NC(=O)c2ncn[nH]2)cccc1-c1nc2ccccc2s1 | active: 25.1 µM
12 | Cc1cccc(N2CCN(C(c3ccncc3)c3nnnn3C(C)(C)C)CC2)c1C (centres undefined) | inconclusive: 70.8 µM [inhibitor, single point]
13 | Cc1nn(-c2ccccc2)c2c1C(c1ccccc1)C(C#N)=C(N)O2 (centres undefined) | inconclusive: 39.8 µM [inhibitor, partial curve]
14 | O=C(NCCCn1ccnc1)c1cc(-c2cccnc2)nc2ccc(Br)cc12 | inconclusive: 70.8 µM [inhibitor, partial curve]
15 | Cc1ccccc1NS(=O)(=O)c1ccc2c(c1)n(C)c(=O)n2C | inconclusive: 50.1 µM [inhibitor, partial curve]
16 | COc1ccsc1NC(=O)OCc1ccc(Cl)cc1 | inconclusive: 56.2 µM [inhibitor, partial curve]
17 | CCOc1cc(C2C(C(=O)c3ccco3)=C(O)C(=O)N2CCc2ccccc2)ccc1O (centres undefined) | inconclusive: 89.1 µM [inhibitor, single point]
18 | CCOC(=O)C1CCCN(C2CC(=O)N(c3ccc(N4C(=O)CC(N5CCCC(C(=O)OCC)C5)C4=O)cc3)C2=O)C1 (centres undefined) | active: 50.1 µM
19 | CC1=C(C(=O)Nc2ccccc2C(=O)NC2CCCCC2C)SCCO1 (centres undefined) | inconclusive: 63.1 µM [inhibitor, partial curve]
